# Laboratory results reported in ChEMBL document CHEMBL1201862, “PubChem BioAssay data set” (2004).
# Test system: NCI-H322M
# Test: NCI-60 cell line screen, 48 h
row,SMILES,GI50
1,CC(=O)n1nnc2ccc([N+](=O)[O-])cc21,inactive: > 100 µM
2,C(=C(c1ccc(OC2CCCCO2)cc1)c1ccc(OC2CCCCO2)cc1)c1ccccc1 (stereo not given),inactive: 1.15 µM
3,CCCCCC(=O)c1ccc2[nH]c3c(C)cc([N+](=O)[O-])c(C)c3c2c1,inactive: > 100 µM
4,Oc1c2c(nc3cc4c(cc13)OCO4)-c1ccccc1CCC2,inactive: > 50 µM
5,CC(=O)OC(C)c1cc2c(s1)C(=O)c1c(C(C)OC(C)=O)csc1C2=O (stereo not given),inactive: 1.45 µM
6,COc1cccc(NC(=O)CC(=O)N2NC(C)C(/N=N/c3cccc(C(=O)O)c3)C2=O)c1 (stereo not given),inactive: > 100 µM
7,N=C(N)SC1c2ccccc2-c2cc([N+](=O)[O-])ccc21 (stereo not given),inactive: 4.43 µM
8,NC(=O)c1c[se]c(C2OC(CO)C(O)C2O)n1 (stereo not given),inactive: 6.04 µM
9,COc1ccc(C2C(C#N)=C(S)N(C3OC(CO)C(O)C(O)C3O)C(C)=C2C(C)=O)cc1 (stereo not given),inactive: > 100 µM
10,COc1cc(NS(C)(=O)=O)ccc1Nc1cc(C)nc2ccc3[nH]ccc3c12,inactive: > 100 µM
11,O=C(N[C@H](CO)[C@H](O)c1ccc([N+](=O)[O-])cc1)C(Cl)Cl [CHLORAMPHENICOL],inactive: > 100 µM
12,Cc1ccc(S(=O)(=O)n2cc(/C=C/C#N)c(/C=C/C#N)c2)cc1,inactive: > 100 µM
13,CSC1=C(C)S/C(=C\c2ccc(/C=C3\SC(C)=C(SC)S3)cc2)S1,inactive: > 100 µM
14,C=CC[C@H](C[C@H](C[C@H](C[C@H](C[C@H](C[C@H](C[C@H](C[C@H](C[C@H](C[C@H](CCCCC)OC)OC)OC)OC)OC)OC)OC)OC)OC)OC,inactive: > 100 µM
15,CC(C)(C)OC(=O)N1CCC(NC(=O)NC2CCN(C(=O)OC(C)(C)C)CC2)CC1,inactive: > 100 µM
16,Cc1cc(C)nc(NS(=O)(=O)c2ccc(NNc3c4ccccc4nc4c(C(=O)Nc5ccc(S(=O)(=O)Nc6cc(C)on6)cc5)cccc34)cc2)n1,inactive: 38.8 µM
17,C[Si](C)(C)/N=C1\N2C(=NC1(C(F)(F)F)C(F)(F)F)Sc1ccccc12,inactive: > 50 µM
18,O=C(CSc1nc2ccc(I)cc2c(=O)n1Cc1ccccc1)Nc1ccc(Br)cc1,inactive: 26.8 µM
19,CC(=O)OC1(C#N)CC2OC1C1N=NN(C(=O)OC(C)(C)C)C21 (stereo not given),inactive: > 100 µM
20,CCN1CCCC(Nc2cc(C)nc(NC(=N)Nc3ccc(Cl)c(Cl)c3)n2)C1 (stereo not given),inactive: 1.53 µM
21,S=C1SCN(Cc2ccco2)CN1c1ccc(Br)cc1,inactive: 18.5 µM
22,O=C(CCc1ccccc1)CC1OC(=O)C(Cl)=C1Cl (stereo not given),inactive: 18.7 µM
23,COCOc1ccc(Cn2c(=O)n(C)c(=O)c3c2ncn3C)cc1[N+](=O)[O-],inactive: > 100 µM

row,SMILES,GI50
1,COc1cc(C2C(Cl)C(=O)N2NC(=O)Cc2ccccc2)ccc1O (stereo not given),inactive: > 100 µM
2,Cc1c2c(c(C)n1-c1ccccc1)C(=O)N(CCCCN1CCN(c3ccccc3)CC1)C2=O,inactive: 21.1 µM
3,O=C(N/C(=C\c1cc(Cl)ccc1Cl)c1nc2ccccc2[nH]1)c1ccccc1,inactive: 53.7 µM
4,CN(N)/N=N/c1[nH]cnc1[N+](=O)[O-],inactive: > 100 µM
5,O=C1C(=O)c2c(oc(=O)c3ccccc23)-c2ccccc21,inactive: > 25 µM
6,COc1ccc(C2C3=C(COC3=O)OC(C)(C)Oc3cc4c(cc32)OCO4)cc1 (stereo not given),inactive: 50.4 µM
7,COC(=O)c1cc2ccc(OC(C)=O)c(OC(C)=O)c2cn1,inactive: 23.1 µM
8,CC(O)c1cc2c(s1)C(=O)c1scc(C(C)O)c1C2=O (stereo not given),inactive: 1.7 µM
9,O=C(c1ccccc1)c1c(-c2ccccc2)[nH]n(-c2ccc([N+](=O)[O-])cc2)c(=O)c1=O,inactive: 57.1 µM
10,CSc1nc(SC)c2c(C)cn(C3OC(C)C(O)C(O)C3O)c2n1 (stereo not given),inactive: 82.6 µM
11,Cc1cccc(NC(=O)CCl)c1,inactive: > 10 µM
12,O=C(O)C(CSC(c1ccccc1)(c1ccccc1)c1ccccc1)/N=C/c1cccs1 (stereo not given),inactive: 1.7 µM
13,O=C1/C(=C/c2ccccc2)CN(C(=O)CCN2CCOCC2)C/C1=C\c1ccccc1,inactive: 7.31 µM
14,COc1cccc(CC(C)N)c1 (stereo not given),inactive: > 100 µM
15,O=C1OC(c2cccc(C(F)(F)F)c2)(c2cccc(C(F)(F)F)c2)c2ccc3ccccc3c21,inactive: > 10 µM
16,COC(=O)C12CCC(C(F)(F)C1=O)C2(C)C (stereo not given),inactive: > 100 µM
17,C=C1CC(OC)(C(OC)C(=O)N[C@H]2OCO[C@H]3C2O[C@H](C[C@@H](COC)OC)C(C)(C)C3OC)O[C@H](C)[C@@H]1C (stereo not given in full),active: 1 µM
18,CCC1CNC(=O)CC1CC(=O)OC (stereo not given),inactive: > 100 µM
19,CC1Oc2cc3c(-c4c(O)cc(O)c5c(O)c6c(cc45)OC(C)C(C)C6=O)c(O)cc(O)c3c(O)c2C(=O)C1C (stereo not given),active: 0.371 µM
20,CC1S/C(=N/c2nnc(-c3ccccc3)o2)NC1=O (stereo not given),inactive: 40.2 µM
21,CCOC(=O)CCC(NC(=O)c1ccc(N2CCN(c3c(C)nc(N)nc3N)CC2)cc1)C(=O)OCC (stereo not given),inactive: 10.4 µM
22,O=[N+]([O-])c1ccc(/C=N/Nc2nc3ccccc3[nH]2)o1,inactive: 22.8 µM
23,CCSC12OC3(CCCCCN3C1=O)C1C(=O)N(c3ccccc3)C(=O)C12 (stereo not given),inactive: > 100 µM

row,SMILES,GI50
1,COc1cccc2c1C(=O)c1c(O)c3c(c(O)c1C2=O)C[C@@](O)(C(C)=O)CC3S(=O)(=O)O (stereo not given in full),inactive: > 100 µM
2,CC1OC(n2cnc3c(N)nc(Cl)nc32)C(C)(O)C1O (stereo not given),inactive: > 25 µM
3,CC1=C2C(c3ccccc3)(c3ccccc3)C3C=CC2(C=N3)N(C(=O)NC2CCCCC2)C1=O (stereo not given),inactive: 18.8 µM
4,O=C1/C(=C/c2ccc3c(c2)OCCO3)CCC/C1=C\c1ccc2c(c1)OCCO2,inactive: 52 µM
5,Cc1ccc(Cc2n[nH]c(=O)n2-c2ccccc2)cc1,inactive: > 100 µM
6,S=C1CC(c2ccc(Cl)cc2)Sc2ccccc2N1 (stereo not given),inactive: 42.5 µM
7,O=C(c1ccncc1)n1nc(-c2ccccc2)c(/N=N/c2ccc([N+](=O)[O-])cc2)c1-c1ccccc1,inactive: 24.4 µM
8,CC1(c2ccccc2Cl)C(C#N)C(=O)NC(=O)C1C#N (stereo not given),inactive: > 100 µM
9,Cc1cc(/N=C2\C=C(Nc3cc(C)on3)C(=O)c3ccccc32)no1,inactive: > 100 µM
10,CC(=O)N1c2ccccc2[C@H]2CCc3c([nH]c4ccccc34)[C@H]21,inactive: 10.9 µM
11,Cc1ccccc1NC(=O)c1cc(-c2ccc([N+](=O)[O-])cc2)nc(S)n1,inactive: > 100 µM
12,C/C(=N\NC(=O)CC#N)c1c(O)cc(C)oc1=O,inactive: > 100 µM
13,CC#CC(O)(C(=O)OC1CCCN(C)C1)C1=CC=CCC1 (stereo not given),inactive: > 100 µM
14,COC(=O)Cc1c([C@H]2[C@H](CC(=O)OC)c3ccccc3N2S(=O)(=O)c2ccc(C)cc2)[nH]c2ccccc12,inactive: > 100 µM
15,CN(C)c1nc2oc(-c3ccccc3)c(-c3ccccc3)c2c2nnnn12,inactive: > 100 µM
16,Cc1c(C#N)c(=N)oc2ccccc12,inactive: > 100 µM
17,CC(C)CC(NC(=O)C(CSc1ccc([N+](=O)[O-])cc1)Cc1ccccc1)C(=O)Nc1ccccc1 (stereo not given),inactive: > 100 µM
18,Nc1ncnc2c(C3OC(CO)C(O)C3O)n[nH]c12 (stereo not given),active: 0.061 µM
19,O=C1CC[C@@]2(O)[C@H]3Cc4ccc(-c5cccc(O)c5)c5c4[C@@]2(CCN3CC2CC2)[C@H]1O5,inactive: 1.5 µM
20,CCC(=O)ONC(=O)Cn1ccc([N+](=O)[O-])n1,inactive: > 100 µM
21,C#CCOCC12C=CC(O1)C1C(=O)OCC12 (stereo not given),inactive: > 100 µM
22,Cc1ccc(NC(=O)CSC(N)=O)cc1C,inactive: > 100 µM
23,C#CCC(O)c1ccc(OC)c(OCc2ccccc2)c1 (stereo not given),inactive: > 100 µM

row,SMILES,GI50
1,CCOc1ccccc1N1C(=O)C(=O)C(c2nc3ccccc3s2)C(=O)C1=O,inactive: 67.9 µM
2,C[N+](C)(C)CC(=O)N/N=c1\cc(C(=O)Nc2ccc(N=O)cc2C#N)oc2cc(O)ccc12,inactive: > 100 µM
3,COc1cccc2c1OC(c1ccc(C#N)cc1)C([N+](=O)[O-])=C2 (stereo not given),inactive: 4.82 µM
4,CN(C)c1ccc(/N=N/c2ccncc2)cc1,inactive: > 100 µM
5,COC1=CCC2=C(CCN(C(=O)C3CCC3)C2Cc2ccc(OC)c(O)c2)C1 (stereo not given),inactive: 16.5 µM
6,O=C1Nc2nnc(S)n2NC12c1ccccc1-c1ccccc12,inactive: 15.1 µM
7,COc1ccc(/C=C2/S/C(=N\c3ccccc3)N(NC(=O)Cc3ccccc3)C2=O)cc1,inactive: > 100 µM
8,CN(CCCNc1ccc2ncn3c4ccccc4c(=O)c1c23)CCCN1C(=O)c2cccc3cc([N+](=O)[O-])cc(c23)C1=O,active: 0.0142 µM
9,C(=N\c1ccc(-c2cc(-c3ccccc3)nc3ccc4ccccc4c23)cc1)/c1ccccc1,inactive: 16.9 µM
10,COc1cc(/C=C/c2ccc(OC)c(O)c2)cc(OC)c1,inactive: 13.6 µM
11,CN(C)c1nc(N(C)C)nc(N(C)CN(C)c2nc(N(C)C)nc(N(C)C)n2)n1,inactive: > 100 µM
12,O=C(NCCCl)SCCO,inactive: > 100 µM
13,C[C@]12CC[C@H](O)C[C@H]1CC[C@@H]1[C@@H]2CC[C@]2(C)[C@@H](C3=CC(=O)OC3)[C@@H](O)C[C@]12O [GITOXIGENIN],inactive: 1.79 µM
14,C=C1CC(Cn2ccc(=O)[nH]c2=O)(c2ccc(-c3ccccc3)cc2)OC1=O (stereo not given),inactive: 13.3 µM
15,CC1(C)CCSC(/C=C/c2ccccc2)=N1,inactive: 17.7 µM
16,CN(C)CCCSc1nc2ccccc2[nH]1,inactive: > 100 µM
17,COC(=O)Cc1cc2c(cc1C(=O)c1ccc(N)cc1)OCO2,inactive: > 31.4 µM
18,Cc1ccc2c3c1O[C@H]1c4[nH]c5ccccc5c4C[C@@]4(O)[C@@H](C2)N(CC2CC2)CC[C@]314,inactive: 17.9 µM
19,CO[C@@H]1[C@H](OC(=O)NC(=O)CCl)CC[C@]2(CO2)[C@H]1[C@@]1(C)O[C@@H]1CC=C(C)C [O-CHLOROACETYLCARBAMOYLFUMAGILLOL],inactive: 14.5 µM
20,COC(=O)[C@H](Cc1ccccc1)NC(=O)N1CCN(C(=O)N[C@@H](Cc2ccccc2)C(=O)OC)CCN(C(=O)N[C@@H](Cc2ccccc2)C(=O)OC)CC1,inactive: > 100 µM
21,CN(CCN(C)Cc1ccc(Cl)c(Cl)c1)CCN1CCCC1,inactive: 17.1 µM

#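 Assay format: 96-well plates, 48-hour exposure. GI50: concentration for 50% inhibition of growth.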 Active and inactive are the calls of the source. Rule as the data show it: active = GI50 up to about 1.1 µM and inactive = higher.
